Legend:
Assay type in all cases: in vivo
Puccinia recondita = experiment: Test Example E: Brown rust on wheat; details: for control value, Test E (brown rust on wheat): Table 7, Test E; for Test E control value (brown rust on wheat): class of control value, Table 7; for Test E control value: Brown rust on wheat
Plasmopara viticola = experiment: Test Example G: Downy mildew on vine; details: for control value, Test G (downy mildew on vine): 250 ppm sprayed (2.5 ml/pot) before inoculation, assessed 7 to 10 days after inoculation; for Test G control value (downy mildew on vine): 250 ppm spray, investigated 7 to 10 days after inoculation; for Test G control value (downy mildew on vine) / Test G control value: 2.5 ml/pot; for Test G control value: Downy mildew on vine, 250 ppm sprayed, 7 to 10 days after inoculation
Alternaia brassicicola = experiment: Test Example C: Alternaria sooty spot on cabbage; details: for control value, Test C (Alternaria sooty spot on cabbage): Table 7, Test C; for Test C control value (Alternaria sooty spot on cabbage): class of control value, Table 7; for Test C control value: Alternaria sooty spot on cabbage
Botrytis cinerea = experiment: Test Example B: Gray mold on tomato; details: for control value, Test B (gray mold on tomato): Table 7, Test B; for Test B control value (gray mold on tomato): class of control value, Table 7; for Test B control value: Gray mold on tomato
[1] = test system: Blumeria graminis f. sp. hordei; experiment: Test Example D: Powdery mildew on barley; details: for control value, Test D (powdery mildew on barley): Table 7, Test D; for Test D control value (powdery mildew on barley): class of control value, Table 7; for Test D control value: Powdery mildew on barley

Cc1cnn(-c2cc(Br)c(=O)n(CC(F)F)c2-c2ccccc2F)c1Cl [Compound 312]
control value, Test E (brown rust on wheat) (Puccinia recondita): H (H shows the control value more than 50%) | control value, Test G (downy mildew on vine) (Plasmopara viticola): L (L shows the control value of 50% or less) | control value, Test C (Alternaria sooty spot on cabbage) (Alternaia brassicicola): H (H shows the control value more than 50%) | control value, Test B (gray mold on tomato) (Botrytis cinerea): H (H shows the control value more than 50%) | control value, Test D (powdery mildew on barley) [1]: H (H shows the control value more than 50%)

O=c1ccc(-n2cc(Cl)cn2)c(-c2ccccc2Cl)n1CC(F)F [Compound 292]
control value, Test E (brown rust on wheat) (Puccinia recondita): H (H shows the control value more than 50%) | control value, Test G (downy mildew on vine) (Plasmopara viticola): L (L shows the control value of 50% or less) | control value, Test C (Alternaria sooty spot on cabbage) (Alternaia brassicicola): H (H shows the control value more than 50%) | control value, Test B (gray mold on tomato) (Botrytis cinerea): H (H shows the control value more than 50%) | control value, Test D (powdery mildew on barley) [1]: H (H shows the control value more than 50%)

O=c1c(Br)cc(-c2ccsc2Cl)c(-c2c(F)cccc2F)n1CC(F)F [Compound 402]
Test E control value (brown rust on wheat) (Puccinia recondita): L (L shows the control value of 50% or less) | Test G control value (downy mildew on vine) (Plasmopara viticola): L (L shows the control value of 50% or less) | Test C control value (Alternaria sooty spot on cabbage) (Alternaia brassicicola): H (H shows the control value more than 50%) | Test B control value (gray mold on tomato) (Botrytis cinerea): L (L shows the control value of 50% or less) | Test D control value (powdery mildew on barley) [1]: L (L shows the control value of 50% or less)

CCn1c(-c2c(F)cc(F)cc2F)c(-n2cc(C)c(C)n2)ccc1=O [Compound 109]
Test E control value (Puccinia recondita): H (H shows the control value more than 50%) | Test G control value (Plasmopara viticola): L (L shows the control value of 50% or less) | Test C control value (Alternaia brassicicola): H (H shows the control value more than 50%) | Test B control value (Botrytis cinerea): H (H shows the control value more than 50%) | Test D control value [1]: H (H shows the control value more than 50%)

Cn1c(-c2c(F)cccc2F)c(-c2sccc2Cl)cc(Cl)c1=O [Compound 439]
Test E control value (brown rust on wheat) (Puccinia recondita): H (H shows the control value more than 50%) | Test G control value (downy mildew on vine) (Plasmopara viticola): H (H shows the control value more than 50%) | Test C control value (Alternaria sooty spot on cabbage) (Alternaia brassicicola): H (H shows the control value more than 50%) | Test B control value (gray mold on tomato) (Botrytis cinerea): H (H shows the control value more than 50%) | Test D control value (powdery mildew on barley) [1]: H (H shows the control value more than 50%)

CCn1c(-c2ccccc2Cl)c(-n2cc(Cl)cn2)cc(Cl)c1=O [Compound 172]
Test E control value (Puccinia recondita): H (H shows the control value more than 50%) | Test G control value (Plasmopara viticola): L (L shows the control value of 50% or less) | Test C control value (Alternaia brassicicola): H (H shows the control value more than 50%) | Test B control value (Botrytis cinerea): H (H shows the control value more than 50%) | Test D control value [1]: L (L shows the control value of 50% or less)

CCn1c(-c2ccccc2F)c(-n2ncc(C)c2Cl)cc(Cl)c1=O [Compound 263]
control value, Test E (brown rust on wheat) (Puccinia recondita): H (H shows the control value more than 50%) | control value, Test G (downy mildew on vine) (Plasmopara viticola): L (L shows the control value of 50% or less) | control value, Test C (Alternaria sooty spot on cabbage) (Alternaia brassicicola): H (H shows the control value more than 50%) | control value, Test B (gray mold on tomato) (Botrytis cinerea): H (H shows the control value more than 50%) | control value, Test D (powdery mildew on barley) [1]: H (H shows the control value more than 50%)

Cc1ccsc1C1=C(c2c(F)cccc2F)N(C)C(=O)CC1 [Compound 457]
Test E control value (brown rust on wheat) (Puccinia recondita): H (H shows the control value more than 50%) | Test G control value (downy mildew on vine) (Plasmopara viticola): L (L shows the control value of 50% or less) | Test C control value (Alternaria sooty spot on cabbage) (Alternaia brassicicola): H (H shows the control value more than 50%) | Test B control value (gray mold on tomato) (Botrytis cinerea): H (H shows the control value more than 50%) | Test D control value (powdery mildew on barley) [1]: L (L shows the control value of 50% or less)

CCn1c(-c2c(F)cc(F)cc2F)c(-n2cnc(Cl)n2)cc(Cl)c1=O [Compound 261]
control value, Test E (brown rust on wheat) (Puccinia recondita): H (H shows the control value more than 50%) | control value, Test G (downy mildew on vine) (Plasmopara viticola): L (L shows the control value of 50% or less) | control value, Test C (Alternaria sooty spot on cabbage) (Alternaia brassicicola): H (H shows the control value more than 50%) | control value, Test B (gray mold on tomato) (Botrytis cinerea): H (H shows the control value more than 50%) | control value, Test D (powdery mildew on barley) [1]: H (H shows the control value more than 50%)

Cc1cnn(-c2cc(Br)c(=O)n(N)c2-c2ccc(F)cc2Cl)c1Cl [Compound 477]
Test E control value (brown rust on wheat) (Puccinia recondita): H (H shows the control value more than 50%) | Test G control value (downy mildew on vine) (Plasmopara viticola): L (L shows the control value of 50% or less) | Test C control value (Alternaria sooty spot on cabbage) (Alternaia brassicicola): H (H shows the control value more than 50%) | Test B control value (gray mold on tomato) (Botrytis cinerea): H (H shows the control value more than 50%) | Test D control value (powdery mildew on barley) [1]: L (L shows the control value of 50% or less)

Cc1cnn(-c2cc(Br)c(=O)n(N(C)C)c2-c2ccc(F)cc2F)c1Cl [Compound 470]
Test E control value (brown rust on wheat) (Puccinia recondita): H (H shows the control value more than 50%) | Test G control value (downy mildew on vine) (Plasmopara viticola): H (H shows the control value more than 50%) | Test C control value (Alternaria sooty spot on cabbage) (Alternaia brassicicola): H (H shows the control value more than 50%) | Test B control value (gray mold on tomato) (Botrytis cinerea): H (H shows the control value more than 50%) | Test D control value (powdery mildew on barley) [1]: H (H shows the control value more than 50%)

Cc1cnn(-c2cc(Br)c(=O)n(N(C)C)c2-c2ccc(F)cc2Cl)c1Cl [Compound 479]
Test E control value (brown rust on wheat) (Puccinia recondita): H (H shows the control value more than 50%) | Test G control value (downy mildew on vine) (Plasmopara viticola): H (H shows the control value more than 50%) | Test C control value (Alternaria sooty spot on cabbage) (Alternaia brassicicola): H (H shows the control value more than 50%) | Test B control value (gray mold on tomato) (Botrytis cinerea): H (H shows the control value more than 50%) | Test D control value (powdery mildew on barley) [1]: H (H shows the control value more than 50%)

CCn1c(-c2ccc(OC)cc2Cl)c(-c2ccsc2Cl)cc(Br)c1=O [Compound 504]
Test E control value (brown rust on wheat) (Puccinia recondita): H (H shows the control value more than 50%) | Test G control value (downy mildew on vine) (Plasmopara viticola): H (H shows the control value more than 50%) | Test C control value (Alternaria sooty spot on cabbage) (Alternaia brassicicola): H (H shows the control value more than 50%) | Test B control value (gray mold on tomato) (Botrytis cinerea): H (H shows the control value more than 50%) | Test D control value (powdery mildew on barley) [1]: L (L shows the control value of 50% or less)

CCn1c(-c2ccc(F)cc2Cl)c(-n2ncc(C)c2Cl)cc(Cl)c1=O [Compound 336]
control value, Test E (brown rust on wheat) (Puccinia recondita): H (H shows the control value more than 50%) | control value, Test G (downy mildew on vine) (Plasmopara viticola): H (H shows the control value more than 50%) | control value, Test C (Alternaria sooty spot on cabbage) (Alternaia brassicicola): H (H shows the control value more than 50%) | control value, Test B (gray mold on tomato) (Botrytis cinerea): H (H shows the control value more than 50%) | control value, Test D (powdery mildew on barley) [1]: H (H shows the control value more than 50%)

CCn1c(-c2c(F)cc(NC)cc2F)c(-c2cnco2)cc(Cl)c1=O [Compound 119]
Test E control value (Puccinia recondita): L (L shows the control value of 50% or less) | Test G control value (Plasmopara viticola): L (L shows the control value of 50% or less) | Test C control value (Alternaia brassicicola): H (H shows the control value more than 50%) | Test B control value (Botrytis cinerea): L (L shows the control value of 50% or less) | Test D control value [1]: L (L shows the control value of 50% or less)

CCn1c(-c2ccc(F)cc2C)c(-n2cc(Cl)cn2)cc(Br)c1=O [Compound 171]
Test E control value (Puccinia recondita): L (L shows the control value of 50% or less) | Test G control value (Plasmopara viticola): L (L shows the control value of 50% or less) | Test C control value (Alternaia brassicicola): L (L shows the control value of 50% or less) | Test B control value (Botrytis cinerea): L (L shows the control value of 50% or less) | Test D control value [1]: L (L shows the control value of 50% or less)

O=c1c(Cl)cc(-n2cc(Cl)cn2)c(-c2ccccc2Cl)n1CC(F)F [Compound 293]
control value, Test E (brown rust on wheat) (Puccinia recondita): H (H shows the control value more than 50%) | control value, Test G (downy mildew on vine) (Plasmopara viticola): L (L shows the control value of 50% or less) | control value, Test C (Alternaria sooty spot on cabbage) (Alternaia brassicicola): H (H shows the control value more than 50%) | control value, Test B (gray mold on tomato) (Botrytis cinerea): H (H shows the control value more than 50%) | control value, Test D (powdery mildew on barley) [1]: H (H shows the control value more than 50%)

Cc1cnn(-c2cc(Br)c(=O)n(CC(F)F)c2-c2ccc(F)cc2F)c1Cl [Compound 256]
control value, Test E (brown rust on wheat) (Puccinia recondita): H (H shows the control value more than 50%) | control value, Test G (downy mildew on vine) (Plasmopara viticola): L (L shows the control value of 50% or less) | control value, Test C (Alternaria sooty spot on cabbage) (Alternaia brassicicola): H (H shows the control value more than 50%) | control value, Test B (gray mold on tomato) (Botrytis cinerea): H (H shows the control value more than 50%) | control value, Test D (powdery mildew on barley) [1]: H (H shows the control value more than 50%)

Cn1c(-c2ccc(F)cc2F)c(-n2cc(F)cn2)ccc1=O [Compound 463]
Test E control value (brown rust on wheat) (Puccinia recondita): L (L shows the control value of 50% or less) | Test G control value (downy mildew on vine) (Plasmopara viticola): L (L shows the control value of 50% or less) | Test C control value (Alternaria sooty spot on cabbage) (Alternaia brassicicola): H (H shows the control value more than 50%) | Test B control value (gray mold on tomato) (Botrytis cinerea): L (L shows the control value of 50% or less) | Test D control value (powdery mildew on barley) [1]: H (H shows the control value more than 50%)

CCn1c(-c2c(F)cc(OC)cc2F)c(-c2ocnc2F)cc(Cl)c1=O [Compound 127]
Test E control value (Puccinia recondita): H (H shows the control value more than 50%) | Test G control value (Plasmopara viticola): L (L shows the control value of 50% or less) | Test C control value (Alternaia brassicicola): H (H shows the control value more than 50%) | Test B control value (Botrytis cinerea): H (H shows the control value more than 50%) | Test D control value [1]: H (H shows the control value more than 50%)

CCn1c(-c2c(F)cc(F)cc2F)c(-n2cc(C(F)F)cn2)cc(Cl)c1=O [Compound 124]
Test E control value (Puccinia recondita): L (L shows the control value of 50% or less) | Test G control value (Plasmopara viticola): L (L shows the control value of 50% or less) | Test C control value (Alternaia brassicicola): H (H shows the control value more than 50%) | Test B control value (Botrytis cinerea): H (H shows the control value more than 50%) | Test D control value [1]: L (L shows the control value of 50% or less)

Source: patent US11178870B2 (priority 2017, dated 2021)
